Hit rate of the full screen: of about 410,000 compounds, about 6,400 (1.6%) were called active. The shares of active, inactive and inconclusive entries below differ from those in the screen. The call rests on the fitted dose curve; in most records, active means well fitted inhibition curve with a large enough effect; inconclusive means small, poorly fitted or top-dose-only effect; inactive means no such curve, though single readings can be large or run the other way. Where the call is inconclusive, the potency comes from a doubtful curve fit.
What follows are compounds tested against Glucagon-like peptide 1 receptor (Homo sapiens) (UniProt P43220) (assay: qHTS of GLP-1 Receptor Inverse Agonists (Inhibition Mode)). Details: HEK293 GLP-1R CRE-luciferase, luminescence, 24 h, GLP-1R form is constitutively active; activity change, negative = inhibition: at 38.3 µM (top of the series) unless noted.
Outline: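 Seeding at 200 cells/uL, 12 h culture, 24 hr compound treatment, then luciferase reagent and a luminescence read; cells are HEK293 stably expressing a constitutively active GLP-1R plus cAMP-responsive luciferase.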
Further: nearly all actives have a fitted effect of over 55% in size.
On the % scale 0 is the no-effect control and ±100 the full control effect; potency means the concentration at half of the fitted maximal effect; tags describe the fitted curve by direction and shape.

Chain of UniProt P43220 (P43220 whole entry, looked up): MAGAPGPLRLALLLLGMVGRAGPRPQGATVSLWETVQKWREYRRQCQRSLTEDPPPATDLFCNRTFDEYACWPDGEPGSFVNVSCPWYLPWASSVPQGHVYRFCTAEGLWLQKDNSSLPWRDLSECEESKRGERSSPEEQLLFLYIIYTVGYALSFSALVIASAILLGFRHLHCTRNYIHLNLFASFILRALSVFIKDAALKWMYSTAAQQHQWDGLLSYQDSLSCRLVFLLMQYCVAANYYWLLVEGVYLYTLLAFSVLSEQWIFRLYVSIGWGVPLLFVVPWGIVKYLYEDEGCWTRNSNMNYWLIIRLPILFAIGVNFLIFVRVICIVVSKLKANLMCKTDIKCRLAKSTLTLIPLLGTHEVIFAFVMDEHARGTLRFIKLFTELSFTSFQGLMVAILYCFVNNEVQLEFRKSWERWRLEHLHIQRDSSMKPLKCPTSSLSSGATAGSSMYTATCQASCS

Potency, active:
FC(F)(F)c1cnc(NNC(=S)Nc2ccccc2Cl)c(Cl)c1 5.01 µM
CC(NC(=O)CN(C)CC(=O)Nc1ccc(Cl)c(C(F)(F)F)c1)c1ccccc1 (configuration not stated) 10 µM
Cc1ccc(-n2c(C)cc(C(=O)CSc3nnc4ccccn34)c2C)cc1 8.91 µM

Potency, inactive:
O=c1cc(-c2cccs2)oc2ccc(Cl)cc12
CC1(CCc2ccc3c(c2)OCO3)NC(=O)c2ccccc2N1 (configuration not stated)
COc1ccccc1CNC(=O)c1cc(Sc2cccc(Cl)c2)nc2ccccc12
COc1cc(OC)cc(-c2oc(=O)c3cc(OC)c(OC)cc3c2/C=C/c2ccc(F)cc2)c1
O=C(CSc1nnnn1C1CCCCC1)Nc1ccccc1N1CCOCC1
S=C1NCN(Cc2ccco2)CN1
Nc1nc2cc(Cl)ccc2n1N
COc1ccc(C(=O)Nc2cccc(C(C)=O)c2)cc1OC
CCN1CCCC1CNC(=O)CCNC(=O)c1cc(OC)c(OC)c(OC)c1 (configuration not stated)
COc1cccc(CCNC(=O)c2c(O)nc3cc(C)ccn3c2=O)c1
O=C(Nc1ccc(F)c(Cl)c1)Nc1nnc([C@H]2C[C@H](O)[C@@H](CO)O2)s1
COc1ccc(C(=O)Nc2ccccc2C(=O)Nc2cccc(C)n2)cc1
CN(C)c1ccc(CNC(=O)CCC(=O)N2Cc3ccccc3Oc3ncccc32)cc1
Cc1cccc(NC(=O)c2ccc([N+](=O)[O-])s2)c1C
O=C1CC(Nc2ccccc2)C(=O)N1c1ccc(N2CCOCC2)cc1 (configuration not stated)
COc1cccc(-c2ccc(C#N)c(OC(=O)c3ccc(Cl)cc3)n2)c1
Fc1cccc(NCc2cccn2-c2nnc(N3CCOCC3)s2)c1

Potency, inconclusive:
CCCCc1ccc(C(=O)Nc2ccc3nc(N(CC)CC)cc(C)c3c2)cc1 4.47 µM [inhibitor, full curve]
COC(=O)c1cccc(F)c1C(=O)c1cccc2ccccc12 11.2 µM [inhibitor, partial curve, poor fit]
COc1ccc(CSc2nc3ccccc3c(=O)n2CCCN2CCOCC2)cc1F 22.4 µM [inhibitor, single point]
CCCN(CC1CC1)c1nc(C)nc(Nc2c(Cl)cc(Cl)cc2Cl)c1Cl 15.8 µM [inhibitor, partial curve, poor fit]
CCc1ccc(C(=O)c2cnc3ccc(C)cc3c2S(=O)(=O)c2ccc(OC)cc2)cc1 10 µM [inhibitor, partial curve, poor fit]
C=CCN1C=C/C(=C\C=C(C#N)C#N)c2ccccc21 28.2 µM [inhibitor, single point]
CCCCN1C[C@H](c2ccc(Br)cc2)[C@@H](CC(=O)Nc2ccc(Br)cc2)C1=O 11.2 µM [inhibitor, partial curve, poor fit]
Cc1cccc(N2CCN(C(=O)NC(C)c3ccc(F)c(F)c3)CC2)c1C (configuration not stated) 7.94 µM [inhibitor, partial curve, poor fit]
CC(=O)Nc1cccc(-c2ccnc3c2CC(C)(C(=O)Nc2ccc(Cl)c(C(F)(F)F)c2)O3)c1 (configuration not stated) 12.6 µM [inhibitor, single point]
CC(=O)Nc1cc(-c2ccc(C(=O)NC3CC3)cc2)cn2c(-c3cccc(C(C)=O)c3)cnc12 14.1 µM [inhibitor, single point]
CCOC(=O)C1CCCN(C(=O)c2cccc(S(=O)(=O)N(Cc3ccccc3)c3ccccc3OC)c2)C1 (configuration not stated) 28.2 µM [inhibitor, single point]
Oc1c(Br)cc(Br)cc1CNc1cccc2cccnc12 11.2 µM [inhibitor, partial curve, poor fit]
O=C(Cc1sc(Nc2ccccc2)nc1-c1ccccc1)NCc1ccccn1 10 µM [inhibitor, single point]
Cc1ccc(C(C)C)c(OCCNS(C)(=O)=O)c1 14.1 µM [inhibitor, single point]
CCCCCCCCNS(=O)(=O)CCNCc1ccccc1 28.2 µM [inhibitor, single point]
Fc1ccc(CN2C3=NCCN3c3ccccc32)cc1 8.91 µM [inhibitor, partial curve]
CC1Cc2ccccc2N1C(=O)c1ccc(N2CCCCC2)c([N+](=O)[O-])c1 (configuration not stated) 8.91 µM [inhibitor, partial curve, poor fit]
CN1CCN(Cc2cc(Cl)c3cccnc3c2OC(=O)c2cccs2)CC1 2.51 µM [inhibitor, full curve, poor fit]
Cc1sc(NC(=O)c2c(F)cccc2F)nc1-c1ccccc1 28.2 µM [inhibitor, single point]
CCOc1ccc(NS(=O)(=O)c2cc(NC(=O)c3ccc(C)cc3)ccc2Cl)cc1 5.01 µM [inhibitor, partial curve]
Cc1cccc(C)c1NC(=O)C(c1ccc(Cl)cc1Cl)N1CCCCC1 (configuration not stated) 3.55 µM [inhibitor, full curve, poor fit]
COc1ccc(OCC(=O)Sc2ccc(C)cc2)cc1 28.2 µM [inhibitor, single point]
Cc1ccc2cc(C#N)c(NCCNC(=S)NCCCN(C)C)nc2c1C 7.94 µM [inhibitor, partial curve, poor fit]
CCC(C(=O)Nc1cc(C(=O)Nc2cc(C)ccn2)ccc1Cl)c1ccccc1 (configuration not stated) 20 µM [inhibitor, single point]
OCC1(Cc2ccc(F)cc2F)CCCN(CCCc2ccccc2)C1 (configuration not stated) 12.6 µM [inhibitor, partial curve, poor fit]
CSc1nc(N2CCOCC2)c2c3c(sc2n1)CCCC3 10 µM [inhibitor, single point]
CC(=O)Nc1ccc(C2CC(c3ccc(Cl)cc3)=NN2c2ccccc2)cc1 (configuration not stated) 3.98 µM [inhibitor, partial curve, poor fit]
CC1CN(C(=O)CCC(=O)NCc2ccccc2)c2ccccc2S1 (configuration not stated) 8.91 µM [inhibitor, single point]
CCc1cccc(C)c1NC(=O)CN1C(=O)c2c(c3ccccc3n2C)C1c1ccc(OC)cc1 (configuration not stated) 12.6 µM [inhibitor, single point]
O=C(NCc1ccccc1)NC12CC3CC(CC(C3)C1)C2 4.47 µM [inhibitor, partial curve, poor fit]
COc1ccc(C(C(=O)NC(C)(C)C)n2c(COc3ccc(C)cc3)nc3ccccc32)cc1 (configuration not stated) 12.6 µM [inhibitor, single point]
Cn1cc(-c2cnc3c(NC=O)cc(-c4cccc(C(F)(F)F)c4)cn23)cn1 28.2 µM [inhibitor, single point]
Cc1ccc(S(=O)(=O)Oc2ccccc2/C=N/O)cc1 10 µM [inhibitor, partial curve, poor fit]
Cc1ccc(NCc2cccn2-c2nnc(N3CCC(C(=O)NCCc4ccccc4)CC3)s2)cc1 14.1 µM [inhibitor, single point]
COc1cccc(Nc2nc(C(N)COCc3ccccc3)cs2)n1 (configuration not stated) 28.2 µM [inhibitor, single point]
CCOC(=O)c1c(CSc2ccccc2)n(C)c2ccc(O)c(CN3CCN(C)CC3)c12 10 µM [inhibitor, partial curve]
CCc1ccccc1NC(=O)c1cccc(Oc2ccc([N+](=O)[O-])cc2Cl)c1 11.2 µM [inhibitor, single point]
COc1cc2c(cc1OC)CN(C(=O)c1cc3ccccc3oc1=O)CC2 11.2 µM [inhibitor, partial curve, poor fit]
COc1ccc(S(=O)(=O)Nc2ccc3c(c2)CCC3)cc1 10 µM [inhibitor, single point]
Nc1nc(C23CC4CC(CC(Cl)(C4)C2)C3)cs1 10 µM [inhibitor, partial curve, poor fit]
Cc1ccc(OCC(=O)Nc2oc(-c3ccccc3)c(-c3ccccc3)c2C#N)cc1 28.2 µM [inhibitor, single point]
CCN(CC)S(=O)(=O)c1ccc(N2CCOCC2)c(NC(=O)COc2ccccc2C)c1 28.2 µM [inhibitor, single point]
CCOC(=O)Cc1nnc2c(Nc3ccccc3F)nc3nonc3n12 8.91 µM [inhibitor, partial curve, poor fit]
CCOC(=O)c1cccc(NC(=O)CN(c2ccc(OC)cc2)S(=O)(=O)c2c(C)noc2C)c1 31.6 µM [inhibitor, single point]
C[C@H](CO)N1C[C@H](C)[C@@H](CN(C)C(=O)Nc2ccc(C(F)(F)F)cc2)Oc2c(NC(=O)NC3CCCCC3)cccc2C1=O 28.2 µM [inhibitor, single point]
COc1ccc(-c2cc(C(=O)OCc3ccccn3)c3ccccc3n2)cc1 12.6 µM [inhibitor, single point]

Activity change, negative = inhibition, inconclusive:
Cc1c(C(=O)O)sc2nc(/C=C/c3cccc(F)c3)[nH]c(=O)c12 -31% [inhibitor]

— PubChem BioAssay AID624417 (National Center for Advancing Translational Sciences (NCATS), 2012)
